Reference: PubChem BioAssay AID504333 (National Center for Advancing Translational Sciences (NCATS), 2011)
Values joined by “and” are separate entries in the source; they are usually repeats but may differ in a detail not shown here. Identical values can stand only once. The campaign covered roughly 360,000 compounds. About 16,000 (4.4%) were called active. The shares of active, inactive and inconclusive entries below differ from those in the screen. Calls come from the whole dose curve; as a rule, active = well fitted inhibition curve with a large enough effect; inconclusive = small, poorly fitted or top-dose-only effect; inactive = no such curve, though single readings can be large or run the other way. Potencies of inconclusive entries are doubtful fits and often do not repeat.

These molecules were tested against Bromodomain adjacent to zinc finger domain protein 2B (Homo sapiens) (UniProt Q9UIF8) (assay: qHTS Assay for Inhibitors of BAZ2B). Conditions: AlphaScreen BAZ2B-H3K14Ac peptide displacement; series mostly up to 114 µM.
Chain of UniProt Q9UIF8 (Q9UIF8 whole entry, looked up, the tested form may be a part): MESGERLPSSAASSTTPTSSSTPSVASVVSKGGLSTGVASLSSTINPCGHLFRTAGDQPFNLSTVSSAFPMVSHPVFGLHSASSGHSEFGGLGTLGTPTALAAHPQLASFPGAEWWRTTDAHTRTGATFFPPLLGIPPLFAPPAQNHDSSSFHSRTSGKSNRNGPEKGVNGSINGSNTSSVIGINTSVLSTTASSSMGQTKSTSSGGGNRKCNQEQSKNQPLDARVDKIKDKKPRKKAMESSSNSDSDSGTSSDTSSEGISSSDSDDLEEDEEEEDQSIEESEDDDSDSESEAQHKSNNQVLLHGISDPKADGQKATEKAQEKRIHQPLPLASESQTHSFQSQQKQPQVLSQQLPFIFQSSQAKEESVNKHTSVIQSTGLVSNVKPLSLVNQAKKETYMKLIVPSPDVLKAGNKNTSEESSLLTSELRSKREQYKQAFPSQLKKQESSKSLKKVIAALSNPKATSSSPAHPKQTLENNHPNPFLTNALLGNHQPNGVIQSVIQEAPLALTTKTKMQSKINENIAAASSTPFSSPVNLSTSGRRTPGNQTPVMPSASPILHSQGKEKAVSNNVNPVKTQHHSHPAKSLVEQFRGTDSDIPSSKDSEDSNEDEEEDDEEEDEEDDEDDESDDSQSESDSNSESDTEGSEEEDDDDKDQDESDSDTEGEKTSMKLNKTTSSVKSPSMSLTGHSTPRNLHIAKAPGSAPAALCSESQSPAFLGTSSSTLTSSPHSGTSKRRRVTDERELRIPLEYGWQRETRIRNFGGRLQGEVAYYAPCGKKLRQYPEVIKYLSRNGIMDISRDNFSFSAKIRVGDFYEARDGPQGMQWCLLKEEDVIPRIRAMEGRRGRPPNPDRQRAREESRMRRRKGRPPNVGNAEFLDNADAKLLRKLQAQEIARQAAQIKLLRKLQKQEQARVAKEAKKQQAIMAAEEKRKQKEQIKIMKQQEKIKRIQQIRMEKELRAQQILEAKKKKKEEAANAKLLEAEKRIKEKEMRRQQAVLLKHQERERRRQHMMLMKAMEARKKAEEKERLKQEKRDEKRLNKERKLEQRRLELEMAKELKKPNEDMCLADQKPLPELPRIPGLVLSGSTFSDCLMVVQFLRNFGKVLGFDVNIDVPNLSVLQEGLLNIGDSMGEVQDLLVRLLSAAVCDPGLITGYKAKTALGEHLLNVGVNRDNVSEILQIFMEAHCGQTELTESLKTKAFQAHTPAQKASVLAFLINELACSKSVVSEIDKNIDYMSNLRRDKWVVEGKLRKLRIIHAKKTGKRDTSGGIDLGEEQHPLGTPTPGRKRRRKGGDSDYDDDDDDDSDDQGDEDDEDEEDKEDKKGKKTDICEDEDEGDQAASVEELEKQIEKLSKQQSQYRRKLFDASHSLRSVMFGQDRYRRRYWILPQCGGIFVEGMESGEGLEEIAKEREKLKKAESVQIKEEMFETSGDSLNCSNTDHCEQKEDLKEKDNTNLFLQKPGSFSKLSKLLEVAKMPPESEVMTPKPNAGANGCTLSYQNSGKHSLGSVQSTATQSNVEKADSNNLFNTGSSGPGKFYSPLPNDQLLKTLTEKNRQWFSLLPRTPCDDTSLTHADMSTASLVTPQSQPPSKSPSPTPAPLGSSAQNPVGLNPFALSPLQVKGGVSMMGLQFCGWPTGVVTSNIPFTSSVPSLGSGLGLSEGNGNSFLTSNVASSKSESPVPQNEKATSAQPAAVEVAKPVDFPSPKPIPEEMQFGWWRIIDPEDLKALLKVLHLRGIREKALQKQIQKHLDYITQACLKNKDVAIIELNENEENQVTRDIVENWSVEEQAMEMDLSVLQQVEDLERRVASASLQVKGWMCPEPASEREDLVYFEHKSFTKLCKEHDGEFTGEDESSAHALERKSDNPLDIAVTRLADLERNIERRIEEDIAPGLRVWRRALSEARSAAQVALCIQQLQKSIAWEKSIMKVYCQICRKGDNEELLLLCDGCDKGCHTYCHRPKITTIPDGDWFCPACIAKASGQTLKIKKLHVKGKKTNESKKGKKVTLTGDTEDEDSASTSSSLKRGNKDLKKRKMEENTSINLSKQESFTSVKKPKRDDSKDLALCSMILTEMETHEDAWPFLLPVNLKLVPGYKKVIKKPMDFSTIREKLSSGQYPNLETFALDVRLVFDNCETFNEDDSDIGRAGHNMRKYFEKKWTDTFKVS
Method in brief: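 Complex of BAZ2B and biotin-H3K14Ac (50 nM apiece) forms over 30 min at RT, then faces library compounds up to 110 uM for another 30 min; AlphaScreen beads added, 20 min dark incubation, luminescence read.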
Note: nearly all actives have a fitted effect of over 60% in size.
Potency is the fitted concentration of half-maximal effect; tags give direction and shape of the fitted curve.

| SMILES | Potency |
| --- | --- |
| S=C1Cc2ccccc2C(c2ccc(Cl)cc2)N1 (configuration not stated) | inconclusive: 50.1 µM [inhibitor, partial curve] |
| O=C(NNC(=O)c1cccs1)c1ccc([N+](=O)[O-])cc1 | inconclusive: 100 µM [inhibitor, single point] |
| N/C(=N\NC(=O)c1ccc(F)cc1)c1cc2ccccc2oc1=O | inconclusive: 79.4 µM [inhibitor, partial curve] |
| COc1ccc(CC(=O)OCC(=O)NCc2ccc(Cl)cc2)cc1 | inactive |
| S=c1cnc2ccccc2[nH]1 | active: 56.2 µM |
| CC1Cc2ccccc2N1CC(=O)Nc1ccc(S(N)(=O)=O)cc1 (configuration not stated) | active: 79.4 µM |
| COc1ccccc1CN1COc2ccc3c(oc(=O)c4ccccc43)c2C1 | active: 5.01 µM |
| CC1C(=O)N2CCCc3cc(S(=O)(=O)Nc4ccccc4C(N)=O)cc1c32 (configuration not stated) | inactive |
| COc1cnc(-c2ccccn2)nc1N(C)C | active: 4.47 µM |
| Cc1ccc(NS(=O)(=O)c2ccc3[nH]c(=O)ccc3c2)cc1N(C)C | inconclusive: 79.4 µM [inhibitor, single point] |
| Clc1cc(Cl)cc(C2=NCCC(c3ccccc3)O2)c1 (configuration not stated) | inactive |
| COc1ccc(-c2csc(Nc3ccc(S(N)(=O)=O)cc3)n2)cc1OC | inconclusive: 39.8 µM [inhibitor, full curve, poor fit] |
| Cc1[nH]n(-c2ccccc2)c(=O)c1/C=N/N(c1ccccc1)c1ccccc1 | inconclusive: 39.8 µM [inhibitor, full curve] |
| CCOC(=O)C1C(=O)CC(C)(O)C(C(=O)OCC)C1c1cccs1 (configuration not stated) | inconclusive: 1 µM [inhibitor, full curve, poor fit] |
| O=C(COC(=O)c1cc([N+](=O)[O-])ccc1N1CCOCC1)c1ccccc1Cl | inconclusive: 25.1 µM [inhibitor, full curve] |
| COc1ccccc1N1CCN(C(=O)c2ccc3c(Cl)c4c(nc3c2)CCCC4)CC1 | inconclusive: 44.7 µM [inhibitor, partial curve] |
| N#Cc1c(NC(=O)COC(=O)C2CC3C=CC2C3)oc(-c2ccccc2)c1-c1ccccc1 (configuration not stated) | inconclusive: 79.4 µM [inhibitor, single point] |
| Cc1ccc(C(=O)Nc2ccc3oc(-c4ccc(C(C)(C)C)cc4)nc3c2)cc1 | inactive |
| Cc1c(C(=O)NCCN2CCOCC2)oc2ccccc12 | inactive |
| COc1ccc(CCNC(=O)c2cc3c(=O)n4ccccc4nc3n(CCCN3CCOCC3)c2=N)cc1OC | inconclusive: 79.4 µM [inhibitor, single point] |
| O=C1c2ccccc2C(=O)c2c1cccc2N1CCCC1 | active: 5.01 µM |
| CC(SCc1ccccc1)C(=O)N/N=C/c1ccc(OCC(=O)NCc2ccco2)cc1 (configuration not stated) | inconclusive: 79.4 µM [inhibitor, single point] |
| CNc1nc2c(C)cccn2c(=O)c1C=Nc1ccc(OC)cc1 | inconclusive: 79.4 µM [inhibitor, single point] |
| Cc1ccc(-c2ccc(CCC(=O)O)n2-c2cccc(O)c2)cc1 | inconclusive: 50.1 µM [inhibitor, partial curve] and inconclusive: 44.7 µM [inhibitor, partial curve] |

| SMILES | Potency |
| --- | --- |
| O=C1Nc2cc(C(=O)N3CCC(N4CCCCC4)CC3)ccc2S/C1=C\c1ccccc1 | inconclusive: 25.1 µM [inhibitor, full curve] |
| COc1ccc(N2CCN(CCCNC(=O)Cn3c(=O)c4cccn4c4ccccc43)CC2)cc1 | inconclusive: 56.2 µM [inhibitor, partial curve] |
| CC(=O)c1cccc(NC(=O)c2c(N3CCCC3=O)c3cc(F)ccc3n2C)c1 | inactive |
| Cc1cccc(C(=O)NC(=S)Nc2ccccc2C(F)(F)F)c1 | inactive |
| Fc1ccc(C2Nc3cccc4cccc(c34)N2)cc1 | inconclusive: 56.2 µM [inhibitor, partial curve] |
| Cc1ccccc1CN1CCN(CC2CC2)CC1CCO (configuration not stated) | inactive |
| O=C(c1ccco1)N1CCN(C(c2ccc(Cl)cc2)c2nnnn2CC2CCCO2)CC1 (configuration not stated) | inconclusive: 89.1 µM [inhibitor, single point] |
| CCCCCCc1c(O)nc(SCCN2CCOCC2)[nH]c1=O | inconclusive: 89.1 µM [inhibitor, single point] |
| CCOc1ccc(OCCCC(=O)N2CCN(S(=O)(=O)c3ccc(Cl)cc3)CC2)cc1 | active: 44.7 µM |
| Fc1ccc(-c2cn3ccccc3n2)cc1 | inconclusive: 89.1 µM [inhibitor, single point] |
| COC(=O)CCc1sc(Nc2ccccc2)nc1-c1ccc(OC)cc1 | inconclusive: 89.1 µM [inhibitor, single point] |
| O=C(NC1=NCCS1)C12CC3CC(CC(C3)C1)C2 | inconclusive: 79.4 µM [inhibitor, single point] |
| CCn1ccnc1CN(C)Cc1cn(-c2ccc(C)cc2)nc1-c1ccc(F)cc1 | active: 50.1 µM |
| Cc1ccc(NC(=S)N(C)N)cc1Cl | inconclusive: 79.4 µM [inhibitor, single point] |
| CCN(C(=O)CCn1cnc2onc(-c3ccc(F)cc3)c2c1=O)c1ccc(OC)cc1 | inactive |
| CCOC(=O)c1c(NC(=O)CSc2nc3ccc(OC)cc3[nH]2)sc2c1CC(C)(C)NC2(C)C | inactive |
| O=C(CCS(=O)(=O)c1nc(-c2ccc3c(c2)OCO3)cc(C(F)(F)F)n1)Nc1ccccc1F | inactive |
| Cc1ccccc1OCc1nnc(SCCN2CCCC2)n1-c1ccccc1 | active: 79.4 µM |
| COc1ccc(N2CCN(S(=O)(=O)CCNC(=O)C34CC5CC(CC(C5)C3)C4)CC2)cc1 | inconclusive: 79.4 µM [inhibitor, partial curve] |
| CC(=O)CNc1ccc(S(=O)(=O)N/N=C/c2ccccc2)cc1 | inactive |
| CN=C1S/C(=C\c2cc(C)n(-c3ccccc3F)c2C)C(=O)N1C | inconclusive: 70.8 µM [inhibitor, single point] |
| Cc1nc(S(=O)(=O)NC2CCCCC2)c(C#N)c(C)c1Cl | inactive |
| Cc1cccc(Cn2cc3c(=O)n(CC(=O)Nc4ccc(C)c(F)c4)nc-3c3cc(F)ccc32)c1 | inactive |
